In publication PMC9352240:

Biological target: recombinant full-length wild-type human tau isoform 2N3R (human) (UniProt P10636)
Assay: thioflavin T fluorescence aggregation kinetics; self-aggregation of recombinant tau alone; 30 uM tau, 60 ug/ml heparin, 10 uM ThT, 20 mM Tris pH 7.4, 37°C; t1/2 = time to half maximum ThT intensity

recombinant full-length wild-type human tau isoform 2N3R (a stretch of the chain, letters omitted) (natural protein; other documents disagree on this pair)
t1/2 of self-aggregation (ThT fluorescence): 4.2 h
